# Assay results as given in PubChem BioAssay (NCATS).
# “And” between values parts separate entries of the source, which are not always exact repeats. Equal entries are not always repeated. This list was built around the results that the source calls inconclusive (neither active nor inactive); the mix of calls is not that of the screen. For part of these data: Potencies beside an inconclusive call are fits to weak or partial responses and may not hold up. For part of these data: “Side channel” marks fits to a control or component signal instead of the main read-out. The source made the active and inactive calls. Unless noted, the call rests on the fitted dose curve; in most records, active means well fitted curve in the direction sought with a large enough effect; inconclusive means small, poorly fitted or top-dose-only effect, or another doubt; inactive means no such curve, though single readings can be large; an effect the other way counts as inactive or inconclusive.
# Experiments:
# [1] = biological target: 3',5'-cyclic-AMP phosphodiesterase 4B (Homo sapiens) (UniProt Q07343); assay: qHTS Assay for Inhibitors of PDE-IV (AID 607; active means well fitted activation curve with a large enough effect in the main read-out, with a control signal flat, not every such curve was filed as active; inconclusive means small, poorly fitted or top-dose-only effect, or effect the other way, or a change in a side signal; further: potency means the concentration at half of the fitted maximal effect); details: HEK293 ACTOne CNG channel cells, membrane potential fluorescence; activation (PDE inhibition): at 22.9 µM (top of the series)
# How it was run: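 ACTOne HEK293 cells carry a modified cAMP-gated CNG channel and express endogenous PDE4; plated 1000 cells/well, compounds up to 22.9 uM final. Membrane-potential dye fluorescence (ex 535/em 590) was read; parental cells received 10 uM forskolin + 100 uM RO 20-1724.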
# [2] = qHTS Assay for Identification of Small Molecule Agonists for Hypoxia Response Element Signaling Pathway (AID 914; active means well fitted activation curve with a large enough effect in the signal ratio, with a control signal flat, not every such curve was filed as active; inconclusive means small, poorly fitted or top-dose-only effect, or effect the other way, or a change in a side signal; the % refers to the signal ratio; further: potency means the concentration at half of the fitted maximal effect; on activation: top concentration of the series differs between compounds; % of control where 0% means no effect); details: ME-180 HRE-bla reporter, beta-lactamase ratio, CoCl2, 17 h; activation: stronger effect = higher value
# How it was run: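 qHTS titration; ME-180 HRE-bla cells; EC50 CoCl2 co-treatment, 17 h at 37 degrees Celsius; CCF4 dye, ex 405nm, em 460nm and 530nm; %Activity from ratio; AC50.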
# [3] = qHTS Assay for Lipid Storage Modulators (AID 1519; calls by dose curve; further: potency means the concentration at half of the fitted maximal effect; on activity change, negative = inhibition: on the % scale 0 is the no-effect control and ±100 the full control effect); details: Drosophila S3 cells, BODIPY lipid droplet/cell ratio, laser cytometry, cells loaded with oleic acid; activity change, negative = inhibition: at 57.5 µM (top of the series) unless noted
# How it was run: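 Cells seeded at 5,000 per well were treated with compounds over a concentration series and loaded with oleic acid (400 uM, as added). Lipid droplet fluorescence (488 nm excitation, 500-530 nm channel) was read by laser-scanning cytometry and normalized to 20 uM Triacsin C.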
# [4] = biological target: Dual specificity protein kinase CLK4 (Homo sapiens) (UniProt Q9HAZ1); assay: qHTS Assay for Inhibitors of CDC-like Kinase 4 (ADP-Glo Assay) (AID 1771); further: on the % scale 0 is the no-effect control and ±100 the full control effect; nearly all actives have a fitted effect of over 70% in size
# How it was run: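 25 nM Clk4, 100 uM RS peptide, 1 uM ATP (final); 2 mM MgCl2, 0.5 mM EGTA, 2.5 mM DTT, 0.01% Triton X-100; 1 hr RT. ADP-Glo readout: ATP depletion 45 min, conversion/luciferase 30 min, luminescence.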
# [5] = Primary qHTS for small molecule stabilizers of the endoplasmic reticulum resident proteome: Secreted ER Calcium Modulated Protein (SERCaMP) assay (AID 1508630); details: SH-SY5Y GLuc-SERCaMP (Gaussia luciferase released on ER calcium loss) secretion, thapsigargin, luminescence; activity change, negative = inhibition: at 38.4 µM (top of the series) unless noted; further: potency means the concentration at half of the fitted maximal effect
# How it was run: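 The SH-SY5Y reporter protocol was run at 3 concentrations up to 38.3 uM (primary) or 11 concentrations (follow-up): 16 h compound, 100 nM thapsigargin for 4 h, then extracellular luciferase luminescence.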
# [6] = biological target: Glucocorticoid receptor (Homo sapiens) (UniProt P04150); assay: GR-GFP Redistribution (AID 450;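 active means compounds whose dose series gives a full or clear partial fitted curve of increased nuclear translocation; inconclusive means weak partial curve or effect only at the top dose; inactive means no dose-dependent translocation response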; further: potency means the concentration at half of the fitted maximal effect); details: U2OS GR-GFP nuclear translocation, laser cytometry, 2 h
# [7] = biological target: Dual specificity protein kinase CLK4 (Homo sapiens) (UniProt Q9HAZ1); assay: qHTS Assay for Inhibitors of CDC-like Kinase 4 (ADP-FP Assay) (AID 1795); further: potency means the concentration at half of the fitted maximal effect;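 further: recombinant human CLK4 phosphorylating RS repeat peptide at 1 µM ATP; nearly all actives have a fitted effect of over 60% in size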
# How it was run: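 Kinase activity was followed as ADP output, converted from fluorescence polarization with a calibration curve. Reactions ran one hour at low ATP (1 uM) with RS peptide substrate.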
# [8] = biological target: Ubiquitin carboxyl-terminal hydrolase 1 (Homo sapiens) (UniProt O94782); assay: Inhibitors of USP1/UAF1: Pilot qHTS (AID 504865); further: potency means the concentration at half of the fitted maximal effect;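 further: rhodamine fluorescence freed from ubiquitin-rhodamine substrate followed over time; nearly all actives have a fitted effect of over 35% in size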
# How it was run: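 Enzyme-free wells gave the negative control, while test wells held 1nM USP1/UAF1 preincubated with compound for 15 min at room temperature. Ub-Rho at 150nM final started the reaction, and fluorescence at 480/540 nm was recorded kinetically.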
# [9] = AP1 Signaling Pathway (AID 357; active means well fitted curve in either direction with a large enough effect, not every such curve was filed as active; inconclusive means small, poorly fitted or top-dose-only effect, or another doubt; further: top concentration of the series differs between compounds; on the % scale 0 is the no-effect control and ±100 the full control effect); details: ME-180 AP-1-bla reporter, EGF-induced, beta-lactamase ratio, 5 h; at 7.69 µM (top of the series) unless noted
# How it was run: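 In this screen, ME-180 cells in Opti-MEM with 0.5% dialyzed FBS received EC50 EGF and compound titrations for 5 h. AP-1 reporter beta-lactamase was detected via CCF4 ratio, giving AC50 for positive and negative modulators.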
# [10] = NFAT Signaling Pathway (AID 444; active means well fitted curve in either direction with a large enough effect, not every such curve was filed as active; inconclusive means small, poorly fitted or top-dose-only effect, or another doubt;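 further: carbachol stimulus at about its EC50 of 1 µM final; on the % scale 0 is the no-effect control and ±100 the full control effect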); details: Jurkat NFAT-bla M1, carbachol, beta-lactamase ratio, 5 h; at 7.69 µM (top of the series) unless noted
# How it was run: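 Read-out: CCF4 FRET ratio (460 nm/530 nm) after 1 h RT dye loading, used for %activity and AC50 from titration series. Cells: Jurkat NFAT-β-lactamase/M1 line, treated with compound plus 1 uM carbachol for 5 h, 37 °C.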
# [11] = biological target: Glucocorticoid receptor (Homo sapiens) (UniProt P04150); assay: GR-EFC Redistribution (AID 451; calls by dose curve; further: potency means the concentration at half of the fitted maximal effect); details: CHO-K1 GR-EFC translocation, beta-gal luminescence, 2 h
# How it was run: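 Translocation of GR-ED fusion to nuclear EA restores b-gal, read by luminescence after 1 h room-temperature detection. Engineered CHO-K1 biosensor cells, 1,000/well, exposed 2 h at 37 C to titrations up to 46 uM final.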
# [12] = biological target: Mitogen-activated protein kinase 10 (Mus musculus) (UniProt Q61831); assay: JNK3 AlphaScreen Assay (AID 530; active means well fitted curve in either direction with a large enough effect, not every such curve was filed as active; inconclusive means small, poorly fitted or top-dose-only effect, or another doubt;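 further: kinase came from lysate of stimulated human HepG2 cells; signal reports phosphorylation of biotinylated GST-cJun 1-79 at Ser73 with 10 µM ATP; potency means the concentration at half of the fitted maximal effect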); details: JNK3 lysate, c-Jun phosphorylation; activity change, negative = inhibition: at 57.1 µM (top of the series)
# How it was run: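 Kinase buffer: 20 mM Tris-HCl pH 7.6, 10 mM MgCl2, 1 mM DTT, 0.1 mM Na3VO4, 0.01% Tween-20; ATP 10 uM. Substrate biotin-GST-cJun(1-79), enzyme from activated HepG2 lysates. Detection by Ser73 phospho-antibody AlphaScreen.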
# [13] = biological target: Cytochrome P450 3A4 (Homo sapiens) (UniProt P08684); assay: qHTS Assay for Inhibitors and Substrates of Cytochrome P450 3A4 (AID 884); details: recombinant CYP3A4, Luciferin-PPXE luminescence; activity change, negative = inhibition: at 57.1 µM (top of the series); further: potency means the concentration at half of the fitted maximal effect; nearly all actives have a fitted effect of over 50% in size
# How it was run: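 Luminescent readout of luciferin produced by CYP3A4 (20 nM) dealkylation of Luciferin-PPXE, 25 uM (its KM). NADPH-driven reaction ran 60 min at RT after 10 min compound preincubation; data scaled to 57 uM ketoconazole as 100% inhibition.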
# [14] = Stat Signaling Pathway (AID 446; active means well fitted curve in either direction with a large enough effect, not every such curve was filed as active; inconclusive means small, poorly fitted or top-dose-only effect, or another doubt;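 further: ME-180 cervical cancer cells given 40 pM IL-6 alongside compound; SIE-controlled beta-lactamase reporter measured as 460/530 nm FRET emission ratio; top concentration of the series differs between compounds; on the % scale 0 is the no-effect control and ±100 the full control effect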); details: ME-180 (cervical carcinoma) SIE beta-lactamase reporter, IL-6 stimulated, 5 h; at 7.69 µM (top of the series) unless noted
# How it was run: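 Compound effects on IL-6-induced STAT reporter activity were measured in ME-180 cells. After overnight culture, cells were co-treated with 40 pM IL-6 for 5 hrs before beta-lactamase substrate loading at room temperature.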
# [15] = qHTS Assay for Identification of Small Molecule Antagonists for NFkB Signaling Pathway (AID 895; active means well fitted inhibition curve with a large enough effect in the signal ratio, with a control signal flat, not every such curve was filed as active; inconclusive means small, poorly fitted or top-dose-only effect, or effect the other way, or a change in a side signal; the % refers to the signal ratio; further: potency means the concentration at half of the fitted maximal effect); details: NFkB beta-lactamase reporter cells, FRET ratio 460/530, stimulated with 10 pM TNF alpha; activity change, negative = inhibition: at 38.3 µM (top of the series)
# How it was run: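 Beta-lactamase reporter read-out (460 and 530 nm emission ratio, 405 nm excitation, 2 hrs substrate loading RT) after 5 hr stimulation with 10 pM TNF alpha in compound-treated NFkB-bla ME-180 cells in low-serum medium.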
# [16] = qHTS Assay for Identification of Small Molecule Antagonists for Thrombopoietin (TPO) Signaling Pathway (AID 918); details: TPO-dependent cell signaling reporter, antagonist mode; activity change, negative = inhibition: at 38.5 µM (top of the series); further: nearly all actives have a fitted effect of over 60% in size
# How it was run: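 Luminescence read-out: GPIIb-promoter luciferase in Ba/F3 cells carrying human TPO receptor. Compounds added with 26 pM TPO (EC50), 24 hrs, 37 C, 5% CO2; cells deprived of IL-3 overnight beforehand. Inhibition of signal scored.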
# [17] = biological target: Muscarinic acetylcholine receptor M1 (Rattus norvegicus) (UniProt P08482); assay: qHTS Assay for Antagonists of Acetylcholine Muscarinic M1 Receptor: Kinetic Measurement of Intracellular Calcium Response (AID 943);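 further: Fluo-4 calcium signal as peak divided by basal fluorescence over 4 min; nearly all actives have a fitted effect of over 75% in size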
# How it was run: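 Read-out: peak over basal Fluo-4 fluorescence, kinetic at 1 Hz for 4 min after EC80 carbachol (100 nM final). Rat M1-CHO cells, dye loaded 1 h at 37C, compound added 10 min before agonist.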
# Tags describe the fitted curve by direction and shape or compound fluorescence and quenching.
# Sequence of UniProt Q07343 (Q07343 whole entry, looked up): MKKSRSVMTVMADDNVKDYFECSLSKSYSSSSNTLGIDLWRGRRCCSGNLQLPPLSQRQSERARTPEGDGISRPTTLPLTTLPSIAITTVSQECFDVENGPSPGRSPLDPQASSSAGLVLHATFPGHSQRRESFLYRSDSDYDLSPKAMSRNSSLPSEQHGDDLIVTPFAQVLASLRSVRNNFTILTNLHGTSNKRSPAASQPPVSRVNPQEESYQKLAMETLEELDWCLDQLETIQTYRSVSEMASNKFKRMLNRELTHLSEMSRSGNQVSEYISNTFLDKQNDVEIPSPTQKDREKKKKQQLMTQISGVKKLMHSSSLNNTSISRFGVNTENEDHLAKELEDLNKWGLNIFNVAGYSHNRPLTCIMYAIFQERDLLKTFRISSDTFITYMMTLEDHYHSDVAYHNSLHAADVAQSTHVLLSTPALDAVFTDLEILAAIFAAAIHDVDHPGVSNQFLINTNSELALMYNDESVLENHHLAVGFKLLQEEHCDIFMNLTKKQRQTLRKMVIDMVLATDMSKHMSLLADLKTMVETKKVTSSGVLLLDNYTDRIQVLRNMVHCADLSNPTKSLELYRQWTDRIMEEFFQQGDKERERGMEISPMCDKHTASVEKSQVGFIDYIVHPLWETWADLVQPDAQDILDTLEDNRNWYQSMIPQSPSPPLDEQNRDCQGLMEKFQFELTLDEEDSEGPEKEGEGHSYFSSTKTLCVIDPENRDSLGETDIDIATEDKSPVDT
# Sequence of UniProt P04150 (P04150 whole entry, looked up, the tested form may be a part): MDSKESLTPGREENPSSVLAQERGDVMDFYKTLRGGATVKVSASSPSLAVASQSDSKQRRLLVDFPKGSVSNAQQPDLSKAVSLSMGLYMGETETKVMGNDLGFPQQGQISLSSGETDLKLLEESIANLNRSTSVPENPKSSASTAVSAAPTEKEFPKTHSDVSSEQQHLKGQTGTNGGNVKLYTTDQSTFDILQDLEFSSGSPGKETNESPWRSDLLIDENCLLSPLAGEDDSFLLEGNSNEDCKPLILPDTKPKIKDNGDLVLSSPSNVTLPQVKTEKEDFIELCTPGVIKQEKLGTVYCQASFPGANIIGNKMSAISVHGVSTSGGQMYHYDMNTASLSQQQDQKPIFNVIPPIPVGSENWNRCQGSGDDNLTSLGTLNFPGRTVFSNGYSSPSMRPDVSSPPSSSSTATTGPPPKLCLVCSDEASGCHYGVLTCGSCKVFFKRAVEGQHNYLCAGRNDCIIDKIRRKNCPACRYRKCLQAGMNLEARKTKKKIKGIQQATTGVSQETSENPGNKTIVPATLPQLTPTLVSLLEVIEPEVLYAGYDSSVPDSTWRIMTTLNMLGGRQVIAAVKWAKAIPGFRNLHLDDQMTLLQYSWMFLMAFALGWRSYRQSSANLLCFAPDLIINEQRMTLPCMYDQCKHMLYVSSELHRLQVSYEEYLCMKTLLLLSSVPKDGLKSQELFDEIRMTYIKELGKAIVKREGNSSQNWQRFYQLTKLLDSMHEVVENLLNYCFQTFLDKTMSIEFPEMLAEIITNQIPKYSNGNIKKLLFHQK
# Sequence of UniProt O94782 (O94782 whole entry, looked up): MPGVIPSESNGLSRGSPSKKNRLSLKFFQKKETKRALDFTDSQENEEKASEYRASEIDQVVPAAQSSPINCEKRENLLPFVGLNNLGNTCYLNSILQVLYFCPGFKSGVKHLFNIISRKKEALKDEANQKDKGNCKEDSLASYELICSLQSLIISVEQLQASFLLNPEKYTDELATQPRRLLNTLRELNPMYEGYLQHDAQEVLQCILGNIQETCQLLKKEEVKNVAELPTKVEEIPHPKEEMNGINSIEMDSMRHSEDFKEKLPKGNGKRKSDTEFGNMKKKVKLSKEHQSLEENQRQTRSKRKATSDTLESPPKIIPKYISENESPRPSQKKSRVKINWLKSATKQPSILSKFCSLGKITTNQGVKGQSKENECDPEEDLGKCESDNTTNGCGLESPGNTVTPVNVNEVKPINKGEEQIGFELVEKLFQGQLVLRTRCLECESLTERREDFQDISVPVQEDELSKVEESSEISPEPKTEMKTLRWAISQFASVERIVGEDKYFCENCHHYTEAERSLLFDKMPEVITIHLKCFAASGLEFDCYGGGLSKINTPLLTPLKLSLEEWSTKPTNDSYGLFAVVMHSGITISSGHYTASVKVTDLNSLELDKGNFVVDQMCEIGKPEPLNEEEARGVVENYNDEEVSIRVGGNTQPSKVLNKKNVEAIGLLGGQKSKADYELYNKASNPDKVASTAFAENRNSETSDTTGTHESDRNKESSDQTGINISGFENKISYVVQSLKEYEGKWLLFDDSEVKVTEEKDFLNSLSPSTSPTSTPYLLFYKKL
# Sequence of UniProt Q9HAZ1 (Q9HAZ1 whole entry, looked up): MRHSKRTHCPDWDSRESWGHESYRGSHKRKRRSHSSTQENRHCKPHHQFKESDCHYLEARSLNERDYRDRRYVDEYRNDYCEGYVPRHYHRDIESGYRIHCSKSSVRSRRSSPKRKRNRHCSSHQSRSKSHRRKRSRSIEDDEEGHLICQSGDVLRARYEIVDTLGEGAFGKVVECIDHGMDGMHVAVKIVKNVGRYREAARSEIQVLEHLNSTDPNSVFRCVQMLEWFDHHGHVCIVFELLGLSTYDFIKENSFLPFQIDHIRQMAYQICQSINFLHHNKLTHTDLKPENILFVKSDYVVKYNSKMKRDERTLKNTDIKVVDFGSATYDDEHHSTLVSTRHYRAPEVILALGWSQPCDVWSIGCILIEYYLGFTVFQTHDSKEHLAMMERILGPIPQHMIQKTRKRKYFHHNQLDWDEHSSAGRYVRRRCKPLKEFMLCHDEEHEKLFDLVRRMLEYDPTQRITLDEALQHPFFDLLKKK
# Sequence of UniProt P08482 (P08482 whole entry, looked up): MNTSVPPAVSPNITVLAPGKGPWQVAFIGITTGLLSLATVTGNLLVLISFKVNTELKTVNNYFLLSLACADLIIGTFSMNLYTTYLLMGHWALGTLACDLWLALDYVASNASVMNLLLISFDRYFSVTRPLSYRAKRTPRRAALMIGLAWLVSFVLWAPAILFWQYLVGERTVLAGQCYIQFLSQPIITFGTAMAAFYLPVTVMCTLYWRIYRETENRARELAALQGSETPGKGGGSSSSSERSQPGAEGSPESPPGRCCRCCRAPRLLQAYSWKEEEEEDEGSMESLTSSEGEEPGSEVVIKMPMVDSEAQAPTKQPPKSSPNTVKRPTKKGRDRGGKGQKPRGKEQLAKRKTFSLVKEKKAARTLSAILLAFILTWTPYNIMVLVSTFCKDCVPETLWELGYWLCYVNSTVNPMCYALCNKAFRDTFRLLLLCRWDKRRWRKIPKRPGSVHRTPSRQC
# Sequence of UniProt P08684 (P08684 whole entry, looked up): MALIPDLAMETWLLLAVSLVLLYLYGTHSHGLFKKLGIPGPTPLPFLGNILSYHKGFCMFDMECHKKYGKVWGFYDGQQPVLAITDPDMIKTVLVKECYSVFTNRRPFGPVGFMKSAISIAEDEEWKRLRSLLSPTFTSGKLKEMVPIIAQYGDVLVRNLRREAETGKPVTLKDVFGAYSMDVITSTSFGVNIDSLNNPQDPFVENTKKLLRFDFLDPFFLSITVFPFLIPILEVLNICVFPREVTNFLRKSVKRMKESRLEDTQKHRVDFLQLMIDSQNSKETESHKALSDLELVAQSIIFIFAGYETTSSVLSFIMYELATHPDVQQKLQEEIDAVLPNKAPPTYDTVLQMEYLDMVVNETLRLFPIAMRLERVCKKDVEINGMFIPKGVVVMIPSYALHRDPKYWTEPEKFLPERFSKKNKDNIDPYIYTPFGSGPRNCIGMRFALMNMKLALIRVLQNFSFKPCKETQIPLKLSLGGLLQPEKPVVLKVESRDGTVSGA
smiles,measurement,setting,value
O=c1c(CCc2ccccc2)nc2cnc(N3CCOCC3)nc2n1-c1ccccc1,Potency,[1],"inconclusive: 3.16 µM [activator, partial curve]"
same,activation,[2],inactive: -5.71%
same,"activity change, negative = inhibition",[3],inconclusive: 6.65%
same,Potency,[4],inactive
same,Potency,[5],"inconclusive: 12.6 µM [inhibitor, partial curve, poor fit]"
Cc1noc(C)c1-c1nccc(N2CCOCC2)n1,Potency,[6],inconclusive: 35.5 µM [single point]
same,Potency,[3],inactive
same,Potency,[7],"inconclusive: 12.6 µM [falling, partial curve]"
same,Potency,[8],inactive
same,Potency,[5],inactive
CN(C)C(=O)c1ccc(-c2nc(Nc3ccccc3)c3ccccc3n2)cc1,Potency,[1],"inconclusive: 10 µM [activator, partial curve]"
same,"activity change, negative = inhibition",[3],inconclusive: 6.48%
same,Potency,[7],"inconclusive: 15.8 µM [falling, partial curve]"
same,Potency,[5],"inconclusive: 28.2 µM [inhibitor, single point]"
COc1ccccc1CNc1ncncc1-c1ccccc1C(F)(F)F,"activity change, negative = inhibition",[9],inactive: -7.72%
same,"activity change, negative = inhibition",[3],inconclusive: 5.26%
same,Potency,[5],"inconclusive: 28.2 µM [inhibitor, single point]"
Cn1cc(-c2nc3cnc(N4CCNCC4)nc3n(CCc3ccccc3)c2=O)c2ccccc21,"activity change, negative = inhibition",[9],inconclusive: 75.5% [activator]
same,"activity change, negative = inhibition",[10],active: 91.4% [activator]
same,Potency,[11],inconclusive: > 46 µM [single point]
same,Potency,[12],"inconclusive: 6.31 µM [activator, partial curve]"
same,Potency,[2],"inconclusive: 3.16 µM [fluorescent, side channel, partial curve]"
same,Potency,[3],"inconclusive: 39.8 µM [cytotoxic, single point]"
same,Potency,[8],"inconclusive: 28.2 µM [inhibitor, single point]"
same,Potency,[5],"inconclusive: 2.82 µM [inhibitor, full curve, poor fit]"
COCCn1c(=O)c(C)nc2cnc(Nc3cccc(OC)c3)nc21,Potency,[3],inactive
same,Potency,[7],"inconclusive: 17.8 µM [falling, partial curve]"
same,Potency,[5],"inconclusive: 28.2 µM [inhibitor, single point]"
N#Cc1ccccc1-c1ccc2ncnc(NCc3cccnc3)c2c1,Potency,[12],"inconclusive: 31.6 µM [inhibitor, single point]"
same,Potency,[1],"inconclusive: 12.6 µM [activator, single point]"
same,Potency,[13],"inconclusive: 2 µM [inhibitor, full curve]"
same,"activity change, negative = inhibition",[3],inconclusive: 8.3%
same,Potency,[7],"inconclusive: 2.82 µM [falling, full curve]"
same,Potency,[5],"inconclusive: 28.2 µM [inhibitor, single point]"
O=c1c(-c2ccc(F)cc2)nc2cnc(Oc3ccccc3)nc2n1C[C@H]1CCCO1,"activity change, negative = inhibition",[9],inconclusive: -33.9% [inhibitor]
same,"activity change, negative = inhibition",[10],inactive: -2.24%
same,Potency,[11],inactive: > 46 µM
same,Potency,[12],"inconclusive: 39.8 µM [activator, partial curve]"
same,Potency,[3],"inconclusive: 17.8 µM [inhibitor, partial curve]"
same,Potency,[5],"inconclusive: 15.8 µM [inhibitor, single point]"
COCCn1c(=O)c(-c2ccc(OC)cc2)nc2cnc(N3CCOCC3)nc21,Potency,[2],"inconclusive: 1.26 µM [activator, partial curve]"
same,"activity change, negative = inhibition",[3],inconclusive: -0.0701%
same,Potency,[7],inactive
same,Potency,[8],inactive
same,Potency,[5],inactive
COc1cccc(Nc2ncc3ncc(=O)n(Cc4ccc(F)cc4)c3n2)c1,Potency,[1],"inconclusive: 1.58 µM [activator, full curve]"
same,"activity change, negative = inhibition",[3],inconclusive: 0.362%
same,Potency,[7],"inconclusive: 0.562 µM [falling, partial curve, poor fit]"
same,Potency,[5],"inconclusive: 22.4 µM [inhibitor, single point]"
N#CCCn1c(=O)c(-c2ccccc2)nc2cnc(N3CCNCC3)nc21,"activity change, negative = inhibition",[9],inconclusive: 94.3% [activator]
same,"activity change, negative = inhibition",[10],inconclusive: 121% [activator]
same,"activity, negative = inhibition",[14],inconclusive: 127% [activator]
same,Potency,[2],active: 3.16 µM
same,"activity change, negative = inhibition",[3],inconclusive: 5.57%
same,Potency,[5],"inconclusive: 31.6 µM [inhibitor, partial curve, poor fit]"
C[C@@H]1CNCCN1S(=O)(=O)c1cccc2cnccc12,"activity change, negative = inhibition",[9],inconclusive: -88% [inhibitor] [at 38 µM] and inconclusive: -99.7% [inhibitor] [at 38 µM]
same,"activity change, negative = inhibition",[10],inconclusive: -46.7% [inhibitor] [at 38 µM] and inconclusive: -59.5% [inhibitor] [at 38 µM]
same,"activity, negative = inhibition",[14],inconclusive: -53.8% [inhibitor] [at 38 µM] and inconclusive: -90.3% [inhibitor] [at 38 µM]
same,Potency,[15],"inconclusive: 15.8 µM [side channel, rising, single point]"
same,"activity change, negative = inhibition",[16],inconclusive: 11.8% [phenotype inactive]
same,Potency,[17],inactive
same,Potency,[3],"inconclusive: 14.1 µM [rising, single point]"
same,Potency,[5],"inconclusive: 2.51 µM [inhibitor, full curve, poor fit]"
Cc1noc(C)c1-c1ccc2ncnc(N3CCN(C)CC3)c2c1,"activity change, negative = inhibition",[9],inconclusive: 52.2% [activator]
same,"activity change, negative = inhibition",[10],inconclusive: -99.7% [inhibitor]
same,"activity, negative = inhibition",[14],inconclusive: -31.1% [inhibitor]
same,Potency,[1],"inconclusive: 7.94 µM [activator, partial curve]"
same,Potency,[2],"inconclusive: 3.98 µM [activator, single point]"
same,Potency,[3],inactive
same,Potency,[7],"inconclusive: 14.1 µM [falling, partial curve]"
same,Potency,[8],inactive
same,Potency,[5],inactive
